Test [1] addresses mouse CNTFR extracellular domain expressed with a C-terminal myc-myc-hexahistidine tag (mouse) (UniProt O88507). The test can be described thus: SPR Biacore 4000, mAb captured by anti-human Fc, antigen injected, 37 C.
Test [2] deals with full length cynomolgus monkey CNTFR (mfCNTFR, amino acids 1-372, NCBI Reference Sequence Accession #XP_005581519.1) (cynomolgus monkey). The test can be described thus: flow cytometry on HEK293/mfCNTFR cells. In general terms: A flow cytometer gives signals particle by particle.
The target in test [3] is mouse CNTFR extracellular domain expressed with a C-terminal myc-myc-hexahistidine tag (mouse) (UniProt O88507). Put plainly: SPR Biacore 4000, mAb captured by anti-human Fc, antigen injected, 25 C.

Among the data in patent US20260201045A1 are Ag Bound, EC50 and Max. Fold Binding (fold over secondary antibody alone) values, retold here.

Chain of UniProt O88507 (O88507 other isoform, or with tags, fused parts or gaps limits assumed): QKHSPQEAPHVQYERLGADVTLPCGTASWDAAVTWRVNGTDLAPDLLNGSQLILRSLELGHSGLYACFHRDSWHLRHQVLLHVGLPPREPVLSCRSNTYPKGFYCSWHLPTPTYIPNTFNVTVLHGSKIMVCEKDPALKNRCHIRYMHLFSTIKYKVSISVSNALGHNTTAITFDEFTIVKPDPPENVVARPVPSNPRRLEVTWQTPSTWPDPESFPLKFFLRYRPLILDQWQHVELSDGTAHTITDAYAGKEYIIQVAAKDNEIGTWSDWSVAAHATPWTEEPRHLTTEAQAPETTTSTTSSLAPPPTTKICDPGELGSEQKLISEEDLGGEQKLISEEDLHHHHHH

B1: REGN8938 (antibody, human IgG4 S228P, kappa, V domains shown)
VH: QVQLVESGGDVVQPGRSLRLSCAASGFTFSYYGMHWVRQPPGKGLEWVTIISFDGSQKYYADSVKGRFTISRDNSKNTVFLQMNSLRTEDTGFYYCAAQSSTWPEYFQYWGQGTLVTVSS
VL: [about 100 residues skipped]
The EC50 is the concentration at which the effect is half-maximal. Consider B1, for which the Ag Bound at 100 nM (RU) in test [1] and in test [3] was 0 RU each time. Further, the EC50 in test [2] amounted to 1.4 nM. The molecule further displayed a Max. Fold Binding (fold over secondary antibody alone) in test [2] of 521.
